PubChem BioAssay AID1794842 (National Center for Advancing Translational Sciences (NCATS), 2023)
In all, about 2,800 compounds went through this assay and fewer than 10 were called active. The call rests on the fitted dose curve; in most records, active means well fitted curve in the direction sought with a large enough effect; inconclusive means small, poorly fitted or top-dose-only effect, or another doubt; inactive means no such curve, though single readings can be large or run the other way. The list shows a part of the results.

biological target: Metallo-beta-lactamase type 2 (Klebsiella pneumoniae) (UniProt C7C422); experiment: qHTS to identify inhibitors of the New Delhi Metallo-beta-lactamase (NDM): Meropenem screen against the machine-based learning selections.; further: % of control where 0% means no effect; conditions: Purified NDM-1, meropenem hydrolysis, absorbance 300 nm; at 38.4 µM (top of the series) unless noted
Summary of the method: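 NDM-1 (2 nM final) in 50 mM HEPES pH 7.0, 1 uM Zn2SO4, 0.01% Tween20 was preincubated with compounds for >30 min. Nitrocefin (16.7 uM final) was read at 485 nm after 15 min, and meropenem (50 uM final) at 300 nm after 30 min.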

UniProt C7C422, sequence (C7C422 whole entry, looked up): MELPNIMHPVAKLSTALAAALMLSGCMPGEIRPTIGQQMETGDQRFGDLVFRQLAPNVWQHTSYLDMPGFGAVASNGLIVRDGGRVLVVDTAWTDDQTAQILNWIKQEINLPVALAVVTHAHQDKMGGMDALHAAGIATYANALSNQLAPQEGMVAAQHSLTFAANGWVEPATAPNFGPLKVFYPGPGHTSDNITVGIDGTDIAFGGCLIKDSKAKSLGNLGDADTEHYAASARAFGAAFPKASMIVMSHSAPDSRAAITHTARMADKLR

Compound | activity change, negative = inhibition
Nc1ccc2ncnc(N3CCCCC3)c2c1 | inactive: 5.09%
COc1ccc(CNC(=O)CC[C@@H]2CNC(=O)[C@@H]3C[C@H](NCc4ccc(N(C)C)cc4)CN23)cc1 | inactive: 2.71%
Cc1nn(-c2ccccn2)c(C)c1[C@@H]1C=C[C@@H](NC(=O)c2ccco2)C1 | inactive: 1.96% [at 57.5 µM]
O=C(Cc1ccccc1F)N1CCC(Oc2ncccc2C(=O)N2CCCCC2)C1 (configuration not stated) | inactive: -2.69%
Cc1cccc(CN2CCOc3c(O)cc(-c4ccccc4C)cc3C2)n1 | inactive: 1.08%
O=C(Cc1c[nH]c2ncc(-c3ccccc3)cc12)NCCCn1ccnc1 | inactive: 15.9% [at 57.5 µM]
CNC1CCN(c2ccc(-c3nc(CCCc4ccccc4)no3)cn2)CC1 | inactive: 0.895%
CC(=O)N1CCN(C(=O)c2nc(-c3ccccc3)cs2)CC(O)C1 (configuration not stated) | inactive: -0.573%
CC1(CNC(=O)c2cccs2)CCOCC1 | inactive: 1.39%
Cc1nnc([C@H]2CCN(C3CCN(C)CC3)C2)o1 | inactive: -0.195% [at 76.7 µM]
Cc1ccc(S(=O)(=O)NC[C@H]2O[C@@H](CO)[C@@H](O)[C@H]2N2CCN(c3cccc(C(F)(F)F)c3)CC2)cc1 | inactive: 62.2%
CC(C)c1nc2c(c(-c3ccc(O)cc3)n1)CN(C(=O)c1ccccc1F)CC2 | inactive: 3.24%
CC(=O)N1CCC(N2CCC[C@H]2c2nc(-c3ccnc(N4CCC(C(N)=O)CC4)c3)no2)CC1 | inactive: -1.74%
COCCNS(=O)(=O)c1cc(C(=O)O)cc(-c2ccncc2)c1 | inactive: -0.536%
CCC(CC)C(=O)N1CCC(N2C(=O)C3(CCCCC3)C2c2ccncc2)CC1 (configuration not stated) | inactive: -0.67%
CSCC(=O)N1C[C@@H](NC(=O)Nc2ccc(F)cc2F)C[C@H]1C(=O)N[C@@H](Cc1cccs1)C(N)=O | inactive: -0.0699%
CC1=C[C@@H](CNC(=O)COCC(=O)O)[C@H](C(C)C)C[C@H]1Cc1nc2ccccc2n1C | inactive: 48.9% [at 57.5 µM]
O=C(c1cc(-c2ccncc2)n[nH]1)N1CCC2(CC1)Nc1ccccc1NC2=O | inactive: -3.79%
N#Cc1cccc(CN2CCOC[C@H]2c2ncc(-c3ccccc3)[nH]2)c1 | inactive: 0.887% [at 57.5 µM]
CN1CCCn2nc(C(=O)NC34CC5CC(CC(C5)C3)C4)cc2C1 | inactive: 0.0618%
COCCCNc1ccc(C(=O)N2CCC(CN3CCCC3=O)CC2)cn1 | inactive: -1.44%
Cc1[nH]c2c(c1C(=O)N1CCCC(CCc3ccc(F)cc3)C1)C(=O)CCC2 (configuration not stated) | inactive: 2.19%
